PubChem BioAssay AID504332 (National Center for Advancing Translational Sciences (NCATS), 2011)
Values joined by “and” are separate entries in the source; they are usually repeats but may differ in a detail not shown here. Equal values may be shown once. In all, about 350,000 compounds went through this assay and about 31,000 (8.9%) were called active. Inconclusive results, whose numbers are uncertain, are shown with a selection of clear calls. Calls follow the shape of the dose curve; as a rule, active = well fitted inhibition curve with a large enough effect; inconclusive = small, poorly fitted or top-dose-only effect; inactive = no such curve, though single readings can be large or run the other way. Where the call is inconclusive, the potency comes from a doubtful curve fit. Some structures have more than one record in an assay (separate samples or runs), and their calls can disagree.

Target: Histone-lysine N-methyltransferase EHMT2 (Homo sapiens) (UniProt Q96KQ7)
Chain of UniProt Q96KQ7 (Q96KQ7 whole entry, looked up): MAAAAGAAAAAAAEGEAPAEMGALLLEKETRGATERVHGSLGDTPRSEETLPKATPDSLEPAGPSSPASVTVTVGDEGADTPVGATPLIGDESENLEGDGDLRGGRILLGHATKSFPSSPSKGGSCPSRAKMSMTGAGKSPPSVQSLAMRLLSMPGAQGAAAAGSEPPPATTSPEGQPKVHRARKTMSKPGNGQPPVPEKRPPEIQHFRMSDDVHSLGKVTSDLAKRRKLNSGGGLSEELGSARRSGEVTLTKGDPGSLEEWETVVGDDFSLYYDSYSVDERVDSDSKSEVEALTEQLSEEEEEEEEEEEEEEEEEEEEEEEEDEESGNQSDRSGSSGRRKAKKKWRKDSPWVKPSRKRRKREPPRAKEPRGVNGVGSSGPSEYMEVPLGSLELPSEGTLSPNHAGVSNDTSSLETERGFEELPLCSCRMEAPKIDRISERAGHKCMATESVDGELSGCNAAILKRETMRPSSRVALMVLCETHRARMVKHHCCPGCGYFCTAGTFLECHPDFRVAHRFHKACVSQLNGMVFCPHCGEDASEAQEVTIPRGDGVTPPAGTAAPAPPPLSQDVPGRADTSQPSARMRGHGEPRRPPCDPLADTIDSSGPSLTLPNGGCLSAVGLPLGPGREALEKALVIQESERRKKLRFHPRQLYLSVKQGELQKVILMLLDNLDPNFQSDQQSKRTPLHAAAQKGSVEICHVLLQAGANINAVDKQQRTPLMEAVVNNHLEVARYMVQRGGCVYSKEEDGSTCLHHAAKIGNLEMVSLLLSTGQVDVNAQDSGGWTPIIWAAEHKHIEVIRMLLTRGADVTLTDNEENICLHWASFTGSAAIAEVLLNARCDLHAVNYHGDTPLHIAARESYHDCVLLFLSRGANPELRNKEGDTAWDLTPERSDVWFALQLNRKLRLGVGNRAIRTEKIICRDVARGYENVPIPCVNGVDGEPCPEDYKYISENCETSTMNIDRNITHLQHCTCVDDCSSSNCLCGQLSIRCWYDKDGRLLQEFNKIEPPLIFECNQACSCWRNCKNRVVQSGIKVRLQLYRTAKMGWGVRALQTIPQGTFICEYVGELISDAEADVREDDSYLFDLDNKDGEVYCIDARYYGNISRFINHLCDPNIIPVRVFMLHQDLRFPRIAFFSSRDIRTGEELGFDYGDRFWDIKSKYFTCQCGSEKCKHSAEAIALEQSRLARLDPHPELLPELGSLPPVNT
Experiment: qHTS Assay for Inhibitors of Histone Lysine Methyltransferase G9a; also: nearly all actives have a fitted effect of over 75% in size
Conditions: G9a H3K9 monomethylation, AlphaScreen, 2 h; activity, negative = inhibition: at 59 µM (top of the series) unless noted
Outline: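 Using a bead-based AlphaScreen, monomethylated H3K9 product from 2 h room-temperature reactions (G9a 20 nM, peptide 500 nM, SAM 20 uM) was detected with 0.5 ug/mL rabbit anti-H3K9me1 antibody.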
% is scaled to controls: 0 for no effect and ±100 for the full control effect; potency is read from the fitted curve at half-maximal effect; tags tell the direction and shape of the fitted curve.

| Structure (SMILES) | Potency | activity, negative = inhibition |
| --- | --- | --- |
| COCCCNC(=O)c1oc2ccc(S(=O)(=O)N(C)C3CCCCC3)cc2c1C | inconclusive: 89.1 µM [inhibitor, single point] |  |
| Cn1c2ccccc2c2c(C(=O)NCCCN3CCCC3=O)cn(C3CCCCC3)c(=O)c21 | inconclusive: 89.1 µM [inhibitor, single point] |  |
| O=C(c1ccc2nc(Cc3ccccc3F)oc2c1)N1CC[C@H](O)C1 | inactive |  |
| COc1cc(C)c2c(c1C=O)Oc1c(c(C)c(O)c3c1C(O)OC3=O)OC2=O (stereo not drawn) |  | inconclusive: -62.1% [inhibitor] |
| C/C(=N\Nc1nc2ccccc2nc1C)c1ccccc1O | active: 22.4 µM |  |
| COc1ccc(C(=O)/C=C/c2ccc(OC)c(O)c2)c(F)c1 | inconclusive: 7.94 µM [inhibitor, full curve, poor fit] |  |
| O=C(CCS(=O)(=O)c1ccc(Br)cc1)N1CCCCCC1 |  | inconclusive: -136% [inhibitor] |
| COc1ccc(Cn2c(=O)c3oc4ccccc4c3n(Cc3ccc(F)cc3)c2=O)cc1 | inactive |  |
| C=CCNC(=O)CC(=O)N/N=C/c1ccccc1F | inconclusive: 89.1 µM [inhibitor, single point] |  |
| O=[N+]([O-])c1ccc(-c2nc(=S)c3c(o2)CCCC3)cc1 | inconclusive: 20 µM [inhibitor, single point] |  |
| Cn1c(=O)n(C/C=C/c2ccccc2)c(=O)c2c1nc1n2CCCN1Cc1ccccc1 | inconclusive: 89.1 µM [inhibitor, single point] |  |
| Cc1cccc(CC(=O)Nc2cccnc2)c1 | inactive |  |
| O=C(CSc1ncccn1)NC(=O)NCc1ccco1 | inactive |  |
| CN(C)CCNC(=O)c1coc(=O)c(Br)c1 | active: 15.8 µM |  |
| COc1ccc(C2C=C(c3ccccc3)Nc3nc(NC(=O)/C=C/c4ccccc4)nn32)cc1 (stereo not drawn) | inactive |  |
| Cc1c(C(=O)N2CCN(c3cccc(Cl)c3)CC2)cccc1[N+](=O)[O-] | inconclusive: 70.8 µM [inhibitor, partial curve, poor fit] |  |
| COc1cc2nc(NC(=O)c3ccc(Cl)cc3)sc(=O)c2cc1OC | inconclusive: 10 µM [inhibitor, partial curve, poor fit] |  |
| Cc1ccc(N(C(=O)CC2NC(=O)NC2=O)C2(C(=O)NC3CCCC3)CCCCC2)cc1 (stereo not drawn) | inconclusive: 79.4 µM [inhibitor, single point] |  |
| Cc1cc(=O)c(C(=O)O)nn1-c1ccccc1C(F)(F)F | inconclusive: 89.1 µM [inhibitor, single point] |  |
| O=S(=O)(NCC(c1cccnc1)N1CCN(c2ccccc2)CC1)c1cccs1 (stereo not drawn) | inconclusive: 79.4 µM [inhibitor, single point] |  |
| c1ccc(C(c2nnnn2C2CCCC2)N2CCCCCC2)nc1 (stereo not drawn) | active: 28.2 µM |  |
| Cc1cc(NC(=O)COC(=O)c2cc([N+](=O)[O-])ccc2N2CCOCC2)ccc1Br | inconclusive: 39.8 µM [inhibitor, partial curve] |  |
| O=Cc1cn(-c2ccc(F)cc2)c2ccccc12 | inactive |  |

| Structure (SMILES) | Potency | activity, negative = inhibition |
| --- | --- | --- |
| COc1cc(OC)c(Nc2cc(C)nc3nc(C)nn23)cc1Cl | inconclusive: 28.2 µM [inhibitor, single point] |  |
| O=S(=O)(c1ccc(Br)cc1Cl)N1CCN(CCO)CC1 | inconclusive: 50.1 µM [inhibitor, partial curve, poor fit] |  |
| CCCn1c(N)c(N(CCOC)C(=O)c2cccc(S(=O)(=O)N3CCCc4ccccc43)c2)c(=O)[nH]c1=O | inconclusive: 89.1 µM [inhibitor, single point] |  |
| O=C(Nc1cc(C(F)(F)F)ccc1N1CCOCC1)c1ccccc1 |  | inactive: 5.47% [at 12.7 µM] |
| CCCC(c1nnnn1Cc1ccc(F)cc1)N1CCN(C2CCCCC2)CC1 (stereo not drawn) | inconclusive: 17.8 µM [inhibitor, partial curve, poor fit] |  |
| O=C(Cn1nnc(-c2ccccc2F)n1)NCc1ccco1 | inconclusive: 50.1 µM [inhibitor, partial curve, poor fit] |  |
| Nc1nc(-c2ccc(NC(=O)c3ccco3)cc2)cs1 | inconclusive: 79.4 µM [inhibitor, single point] |  |
| Cc1cccc(N2C(=O)C(O)=C(C(=O)c3cccs3)C2c2ccc(C(C)C)cc2)n1 (stereo not drawn) | inconclusive: 89.1 µM [inhibitor, single point] |  |
| CCCSc1nc(O)c(C2OC(=O)c3c2ccc(OC)c3OC)c(=O)n1-c1ccccc1 (stereo not drawn) | inconclusive: 89.1 µM [inhibitor, single point] |  |
| CC(=O)C1=C(O)C(=O)N(c2nccs2)C1c1ccc(Br)cc1 (stereo not drawn) | inconclusive: 89.1 µM [inhibitor, single point] |  |
| O=S(=O)(Nc1cccc(-c2ccc(N3CCCCCC3)nn2)c1)c1cccc(F)c1 | inactive and active: 31.6 µM |  |
| O=C(Cn1cc(C(F)(F)F)cc(Cl)c1=O)NC1CCS(=O)(=O)C1 (stereo not drawn) |  | inactive: 10.3% [at 12.7 µM] |
| O=C1CCCC2=C1C(c1ccc(O)c(O)c1)c1c(ccc3ncccc13)N2 (stereo not drawn) | active: 3.55 µM |  |
| O=C1c2ccccc2C(Nc2cccc(C(F)(F)F)c2)N1Cc1ccco1 (stereo not drawn) | active: 70.8 µM |  |
| C=CCOc1cccc(C(=O)N2CCC(CCC(=O)NC3CC3)CC2)c1 | inactive |  |
| CC(=O)N1/C(=C/c2ccc(N(C)C)cc2)C(=O)c2ccccc21 | active: 11.2 µM |  |
| Cc1ccc(S(=O)(=O)Oc2ccc(/C=C3\N=C(c4cccc(C)c4)OC3=O)cc2)cc1 | inconclusive: 79.4 µM [inhibitor, partial curve, poor fit] |  |
| COc1ccc(N2CCN(C(=O)Cc3ccc(-n4c(=O)[nH]c5ccccc5c4=O)cc3)CC2)cc1 | inconclusive: 28.2 µM [inhibitor, single point] |  |
| COCCNC(=O)c1ccc2nc(Cc3ccc(OC)c(OC)c3)oc2c1 | inactive |  |
| CCOc1ccc2oc(=O)cc(CN3CCN(C(=O)c4ccc(F)cc4)CC3)c2c1 | inconclusive: 39.8 µM [inhibitor, partial curve, poor fit] |  |
| Cc1ccccc1-n1nnnc1SCc1cc(=O)n2ccsc2n1 | inactive |  |
| O=C(Nc1ccc(N2CCCCCC2)cc1)c1ccc[nH]1 |  | inactive: -25.7% [at 2.33 µM] |
| COc1ccc(N2C3=C(C(=O)CC(C)(C)C3)C(c3ccccc3OC)C3=C2CC(C)(C)CC3=O)cc1 |  | inactive: -8.87% [at 12.7 µM] |

| Structure (SMILES) | Potency | activity, negative = inhibition |
| --- | --- | --- |
| Cc1ccc(Cn2cccc(NC(=O)c3ccco3)c2=O)cc1 | inconclusive: 79.4 µM [inhibitor, single point] |  |
| CC(=O)Nc1cc(-c2ccc(Cl)cc2)nn1-c1ccccc1 | inconclusive: 39.8 µM [inhibitor, single point] |  |
| CCCCOC(=O)CSC1=C(C#N)C(c2cccnc2)C(C(=O)OCC)=C(c2ccccc2)N1 (stereo not drawn) | inactive |  |
| O=C1CCSC2(C(=O)N(Cc3ccc(F)cc3)c3ccccc32)N1c1ccc(F)c(F)c1 (stereo not drawn) | inconclusive: 7.94 µM [inhibitor, partial curve, poor fit] |  |
| NC(=O)c1cccc(C[C@H](C(=O)O)N2C(=O)c3ccc(C(=O)O)cc3C2=O)c1 |  | inactive: -2.13% [at 12.7 µM] |
| CCC(Sc1nncn2c1cc1oc(C)cc12)C(=O)Nc1ccc(F)cc1 (stereo not drawn) | inconclusive: 20 µM [inhibitor, partial curve, poor fit] |  |
| COc1cc(C)c(C)cc1S(=O)(=O)Nc1cccc(-c2ccc(N3CCOCC3)nn2)c1 | inconclusive: 3.98 µM [inhibitor, single point] |  |
| CC(C)(C)OC(=O)N1CCC(c2c(C(=O)NCCN3CCC(Cc4ccccc4)CC3)cnn2-c2ccc(F)cc2)CC1 | inconclusive: 10 µM [inhibitor, partial curve] |  |
| O=C(Nc1ccc(O)cc1)N1CCOCC1 | inconclusive: 25.1 µM [inhibitor, single point] |  |
| COc1ccc(NS(=O)(=O)c2cc(NC(=O)/C=C/c3cc(OC)ccc3OC)ccc2N2CCCCC2)cc1 | inactive |  |
| COC(=O)c1cc2oc3ccccc3c2n1Cc1nc(-c2ccccc2C)oc1C | inactive |  |
| O=C(CSCc1cc(=O)c2cc(F)ccc2[nH]1)Nc1ccccc1Cl | inactive |  |
| CCN(CC)C(=O)CN1CCN(c2ncccn2)CC1 | active: 5.62 µM |  |
| O=C(COc1ccc([N+](=O)[O-])cc1)Nc1ccc2[nH]c(=O)[nH]c2c1 | inconclusive: 10 µM [inhibitor, partial curve, poor fit] |  |
| CCOC(=O)Nc1ccc(S(=O)(=O)Nn2cnnc2)cc1 | inconclusive: 89.1 µM [inhibitor, single point] |  |
| C#CCn1c(=NC(=O)c2cc(Cl)sc2Cl)sc2cc(S(N)(=O)=O)ccc21 | inconclusive: 1 µM [inhibitor, full curve, poor fit] |  |
| O=C(O)CCCC(=O)N1N=C(c2ccccc2)CC1c1ccc2c(c1)OCO2 (stereo not drawn) | inactive |  |
| COc1ccc(C2=NN(C(=O)CSc3ncccn3)C(c3ccc(C)cc3)C2)cc1 (stereo not drawn) | inconclusive: 25.1 µM [inhibitor, single point] |  |
| Cc1ccc(-c2csc3nc(C)n(-n4cccc4)c(=O)c23)o1 | inconclusive: 20 µM [inhibitor, single point] |  |
| COc1ccc(C(=O)Nc2cccc(-c3ccc4nncn4n3)c2)cc1OC | inconclusive: 89.1 µM [inhibitor, partial curve, poor fit] |  |
| Cc1ccccc1-c1noc(CCC(=O)NCc2ccco2)n1 | inconclusive: 25.1 µM [inhibitor, single point] |  |
| Cc1cc2ccccn2c1C(=O)c1nc(NCc2ccco2)ncc1Cl | inconclusive: 35.5 µM [inhibitor, full curve] |  |
